Experimental data as given in paper PMC4336329 (PLoS ONE, 2015).
Screen size: about 310,000 compounds; about 2,200 (0.71%) showed an effect of 50% or more. The effect is printed as a negative number. Some of the results follow.

Biological target: human ether-à-go-go-related gene (hERG) potassium channel (human, UniProt Q12809)
Assay: primary screen, population patch clamp on CHO cells stably expressing hERG

Sequence of human ether-à-go-go-related gene (hERG) potassium channel (Q12809 whole entry, looked up): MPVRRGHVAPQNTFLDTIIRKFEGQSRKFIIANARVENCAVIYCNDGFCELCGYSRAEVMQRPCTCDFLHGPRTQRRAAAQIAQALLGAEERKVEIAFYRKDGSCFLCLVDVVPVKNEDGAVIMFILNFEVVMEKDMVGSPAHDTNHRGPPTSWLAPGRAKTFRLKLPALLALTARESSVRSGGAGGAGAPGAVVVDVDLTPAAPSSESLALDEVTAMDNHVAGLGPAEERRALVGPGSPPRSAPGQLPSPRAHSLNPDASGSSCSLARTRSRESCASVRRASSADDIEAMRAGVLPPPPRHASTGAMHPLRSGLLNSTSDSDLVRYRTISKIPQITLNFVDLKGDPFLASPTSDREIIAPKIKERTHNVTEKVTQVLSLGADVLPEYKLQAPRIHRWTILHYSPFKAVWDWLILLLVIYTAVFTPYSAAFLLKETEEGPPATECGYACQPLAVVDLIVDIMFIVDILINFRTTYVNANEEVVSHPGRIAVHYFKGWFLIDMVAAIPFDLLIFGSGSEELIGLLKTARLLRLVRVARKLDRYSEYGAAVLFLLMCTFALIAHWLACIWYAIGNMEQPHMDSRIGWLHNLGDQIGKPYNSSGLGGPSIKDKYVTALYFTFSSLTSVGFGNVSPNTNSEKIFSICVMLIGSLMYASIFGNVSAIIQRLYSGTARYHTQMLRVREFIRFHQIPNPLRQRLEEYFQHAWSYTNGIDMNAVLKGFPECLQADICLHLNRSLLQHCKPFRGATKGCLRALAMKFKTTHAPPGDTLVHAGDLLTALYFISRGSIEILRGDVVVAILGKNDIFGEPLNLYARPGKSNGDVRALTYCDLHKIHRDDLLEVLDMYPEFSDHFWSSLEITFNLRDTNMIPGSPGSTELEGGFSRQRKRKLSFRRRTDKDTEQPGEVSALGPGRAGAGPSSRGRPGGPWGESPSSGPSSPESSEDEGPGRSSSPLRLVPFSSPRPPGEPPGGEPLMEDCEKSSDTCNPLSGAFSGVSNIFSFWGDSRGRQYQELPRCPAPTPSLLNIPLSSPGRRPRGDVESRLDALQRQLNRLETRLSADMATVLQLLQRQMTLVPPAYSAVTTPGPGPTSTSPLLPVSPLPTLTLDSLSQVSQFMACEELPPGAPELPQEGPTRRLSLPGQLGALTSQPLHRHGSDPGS

| Structure (SMILES) | hERG current change (%, negative = inhibition) at 1uM |
| --- | --- |
| CCOc1c(Br)cc(CNc2ccc3c(c2)OCCO3)cc1OC | -1.23% |
| CCOc1ccccc1-c1nc(SCC(=O)O)n[nH]1 | -1.8% |
| Cc1cccc(C)c1-n1c(C)cc(/C=N\Nc2ccc([N+](=O)[O-])cn2)c1C | 10.6% |
| O=C(O)C1C2C=CC(C3CC23)C1C(=O)N1CCc2ccccc21 (centres unmarked) | -8.78% |
| CNC(=O)C(=O)N/N=C/c1cccnc1 | -5.85% |
| N#Cc1ccccc1NC(=O)CN1C(=O)NC2(CCCC2)C1=O | 10.2% |
| COc1cc(C(=O)NCCc2cn3ccc(C)cc3n2)cc(OC)c1OC | -0.848% |
| CCCCN(C(=O)CSCc1c(C)noc1C)c1c(N)n(CCCC)c(=O)[nH]c1=O | 12.4% |
| CC1(C(=O)NC(=S)N(CCC#N)Cc2cccnc2)CC1(Cl)Cl (centres unmarked) | 15.2% |
| CCOc1ccc(CNCCc2ccc3c(c2)OCO3)cc1 | -52.6% |
| O=c1c2ccccc2ncn1Cc1ccccc1 | 14.3% |
| O=C(COC(=O)c1ccccc1O)Nc1cccc(S(=O)(=O)N2CCCC2)c1 | -1.72% |
| COc1ccc(/C=N/n2cnn(Cc3ccccc3Cl)c2=S)cc1 | 9.09% |
| CC1CC(C)CN(C(=O)CNC(=O)c2ccc3ccccc3c2)C1 (centres unmarked) | 10.7% |
| COc1ccc(CCNC(=O)C/C(C)=N/NC(=O)c2ccc(N)cc2)cc1OC | -0.621% |
| COCCOc1ccc(C(F)(F)F)cc1NC(=O)COC(=O)Cc1c[nH]c2ccccc12 | 8.51% |
| CC(C)(C#N)Cc1cc(CC(C)(C)C#N)cc(C(C)(C)C)c1 | 11% |
| CCOC(=O)N1CCN(C(=O)/C(=C/c2cccs2)NC(=O)c2ccc(OC)c(OC)c2)CC1 | -64.7% |
| O=C1OC(c2ccccc2)c2ccc3ccccc3c21 (centres unmarked) | 18.4% |

| Structure (SMILES) | hERG current change (%, negative = inhibition) at 1uM |
| --- | --- |
| Cc1ccc(CCNC(=O)CN(C)S(=O)(=O)c2cnc[nH]2)cc1 | -1.57% |
| N#Cc1ccccc1Cn1c(=O)n(Cc2ccc(C(=O)NCc3ccco3)cc2)c(=O)c2ccccc21 | -4.17% |
| CC(C)(C)C(=O)NC(=S)Nc1ccccn1 | 13.5% |
| CCN(C(=O)CN1CCN(S(=O)(=O)c2cc(Cl)ccc2Cl)CC1)c1c(N)n(Cc2ccccc2)c(=O)[nH]c1=O | -5.41% |
| Cc1c(/C=N\NC(=O)c2cccc(F)c2)cnn1C | 14.9% |
| O=C(CSc1nc2ccccc2c(=O)n1-c1ccc(F)cc1F)c1c[nH]c2ccccc12 | 10.2% |
| Cc1ccc(NC(=O)CCNC(=O)c2ccc(Br)cc2)cc1S(=O)(=O)N1CCOCC1 | -4.08% |
| COc1ccc(N(C(=O)C(C)C)S(=O)(=O)c2cccc([N+](=O)[O-])c2)cc1 | 6.7% |
| COc1ccc(C2CC(c3ccc(Br)cc3)=NN2C(=O)CN2CCCC2)cc1 (centres unmarked) | -28.3% |
| Nc1ccccc1SCC(=O)Nc1ccc(N2CCOCC2)cc1 | 5.34% |
| COc1ccc(CNC(=S)NCc2ccc(F)cc2)cc1OC | 11% |
| CCCS(=O)(=O)N1CCCC(C(=O)NCCCOCC)C1 (centres unmarked) | 0.616% |
| Oc1ccccc1CN1CCCC(N2CCc3ccccc3C2)C1 (centres unmarked) | 6.36% |
| Cc1cc(-c2ccccc2)n(-c2ccc(C(N)=O)cc2)n1 | 12.2% |
| O=C(CCC(=O)Nc1ccc(F)cc1)N/N=C/c1ccc(F)cc1 | 16.4% |
| COc1ccc(Cl)cc1C(=O)Nn1cnc2ccccc2c1=O | 1.9% |
| O=C(Cc1ccccc1)NC(=S)Nc1ccc2oc(-c3ccccc3F)nc2c1 | 5.24% |
| COCCNC(=O)Cn1cc(/C=C2\C(=O)NC(=O)N(c3cccc(C)c3C)C2=O)c2ccccc21 | 11.3% |
| CCCCn1c(N)c(N(Cc2ccccc2OC)C(=O)c2sccc2C)c(=O)[nH]c1=O | 13.7% |

| Structure (SMILES) | hERG current change (%, negative = inhibition) at 1uM |
| --- | --- |
| CC(C)(C)N(Cc1ccccc1)C(=O)COC(=O)CN1C(=O)C2CC=CCC2C1=O (centres unmarked) | 12.7% |
| O=C(O)C1CCCCC1C(=O)Nc1ccc(OCc2ccccc2)cc1 (centres unmarked) | 11.4% |
| COc1ccc(C(=O)NCC(=O)NCC(=O)OCC(=O)c2ccc(Br)cc2)cc1 | 7.32% |
| Cc1noc(C)c1COc1ccccc1C(=O)NCc1ccccc1Cl | -2.66% |
| CN(CC(=O)Nc1ccccc1Br)C(=O)CNC(=O)Cc1cccc2ccccc12 | 11.1% |
| O=C(Cc1ccc(F)cc1)N1CCN=C1SCc1cccc([N+](=O)[O-])c1 | -3.33% |
| CN1CCN(S(=O)(=O)c2cccc([N+](=O)[O-])c2)CC1 | 12.3% |
| CC(C)Cn1c(N)c(C(=O)CSc2nc3ccccc3n2C)c(=O)n(C)c1=O | 1.85% |
| COc1ccc(NC(=O)CSc2nnc(Cn3cnc4ccccc43)o2)cc1 | 12.4% |
| Cn1c(N)c(C(=O)COC(=O)c2ccc3c(c2)OCCO3)c(=O)n(C)c1=O | 3.15% |
| CCCc1nnc2c(N(C)S(=O)(=O)c3ccccc3)nc3ccccc3n12 | 18% |
| COc1ccccc1/C=N/NC(=O)COCC(=O)N/N=C/c1ccccc1OC | 9.07% |
| CC(C)c1ccc(NC2=NCC(=O)N2Cc2cccs2)cc1.Cl | 15.2% |
| Cc1ccccc1N1CCN(C2CCCN(C(=O)c3ccnn3C)C2)CC1 (centres unmarked) | 9.3% |
| CCOC(=O)N1CCN(Cc2nc3cc(NC(C)=O)ccc3n2C)CC1 | 15.4% |
| COc1ccc(C(=O)C2CCCN(Cc3ccc(F)cc3F)C2)cc1F (centres unmarked) | 3.8% |
| Cc1cc(C)nc(N2CCCC(CCC(=O)NCc3ccc(F)c(F)c3)C2)n1 (centres unmarked) | 11.6% |
| O=C(/C=C/c1ccc(-c2ccc(F)cc2)o1)N1CCCC1 | 8.95% |
